In the supplement of paper PMC11098506:
± gives the standard deviation of the averaged measurements.

B1: VDAC2; numbered along this chain (parent)
chain: MATHGQTCARPMCIPPSYADLGKAARDIFNKGFGFGLVKLDVKTKSCSGVEFSTSGSSNTDTGKVTGTLETKYKWCEYGLTFTEKWNTDNTLGTEIAIEDQICQGLKLTFDTTFSPNTGKKSGKIKSSYKRECINLGCDVDFDFAGPAIHGSAVFGYEGWLAGYQMTFDSAKSKLTRNNFAVGYRTGDFQLHTNVNDGTEFGGSIYQKVCEDLDTSVNLAWTSGTNCTRFGIAAKYQLDPTASISAKVNNSSLIGVGYTQTLRPGVKLTLSALVDGKSINAGGHKVGLALELEA

Variants of: B1
Test: log2 fold difference of barcode abundance, FLAG-VDAC2-high vs FLAG-VDAC2-low sorted fraction (expression level) (log2 ratio); higher = higher VDAC2 variant expression
Conditions: Mcl1-/- Bax-/- Vdac2-/- MEF
Method: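 Deep mutational scan of human VDAC2 (FLAG-tagged) with single amino acid substitutions at positions Q165–F180, each barcoded clone expressed in Mcl1/Bax/Vdac2-deficient MEFs. Cells were stained with PE anti-FLAG and sorted into FLAG-high and FLAG-low fractions, and barcodes were counted by Illumina sequencing. The score is log2(CPM) in FLAG-high minus log2(CPM) in FLAG-low, per barcode; barcodes of the same variant are averaged.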

log2 fold difference of substitutions, site by site:
K172: N 1.49 ± 2; G 1.05 ± 1.8; P 0.431 ± 2; R 1.22 ± 1.9; I 0.916 ± 1.9; E 0.864 ± 2.4; Q 1 ± 1.3; T -0.338 ± 2.5; W 0.492 ± 2.3; H -0.674 ± 2.9; M -0.568 ± 1.1; A 0.388 ± 1.9; Y 1.43 ± 2.1; V 1.16 ± 2.3; F 0.61 ± 1.5; S 1.04 ± 2; C 1.03 ± 1.7; L 1.5 ± 2.8; D 0.406 ± 1.3
M166: N 0.228 ± 1.7; P 1.02 ± 2.4; F 3.1 ± 2.6; H 1.21 ± 2.2; R -0.553 ± 1.4; L 0.98 ± 1.9; C 2.5 ± 2.5; Q 0.582 ± 1.5; W -0.371 ± 1.8; E -2 ± 0.87; T 0.632 ± 2.8; D -1.21 ± 2.6; Y 2.11 ± 1.4; I 1.49 ± 2; V 1.92 ± 1.7; A 1.04 ± 2.4; K -0.863 ± 1.4; G 1.74 ± 1.7; S 0.274 ± 2.8
N179: E 2.48 ± 2.3; R 1.53 ± 2.2; M 1.21 ± 2.3; G 1.31 ± 2.1; D 0.762 ± 2.2; Q 0.935 ± 2.3; Y 0.571 ± 2.2; C 1.9 ± 2.4; V 0.173 ± 1.2; F 1.28 ± 2.4; T 1.66 ± 1.5; L 0.81 ± 1.9; W -0.521 ± 1.5; I 0.827 ± 1.7; H 2.09 ± 2.1; A 2.16 ± 2.3; S 1.17 ± 2.3; P -0.116 ± 3.4; K 1.71 ± 2.1
L175: A 1.56 ± 1.7; W -0.202 ± 1.1; M -0.24 ± 0.8; E 0.898 ± 2.3; P 0.99 ± 2.4; Y 0.996 ± 1.8; S 0.642 ± 2.2; G 1.52 ± 2; F 1.27 ± 2.4; K 1.09 ± 2; H 0.84 ± 1.1; T 0.632 ± 2.4; N 1.22 ± 2.7; R 0.512 ± 1.5; V 1.16 ± 1.9; D -0.428 ± 1.1; Q 2.57 ± 2.5; C 0.471 ± 2.1; I 2.46 ± 2.3
S173: T 1.07 ± 1.8; E 2.12 ± 2.2; A 1.04 ± 2.4; N 0.947 ± 1.8; G 1.57 ± 1.9; R 0.943 ± 1.2; K -0.351 ± 1.6; H 0.479 ± 1.8; P 1.29 ± 1.5; I 1.86 ± 2; M 0.451 ± 1.7; V 1.31 ± 2.1; L 0.722 ± 1.6; Q 1.7 ± 2; Y 0.581 ± 1.5; D 0.578 ± 1.4; W 0.707 ± 2.2; C 1.61 ± 1.9; F -0.212 ± 1.3
K174: R 1.01 ± 2.1; Y 1.33 ± 2; W 0.189 ± 1.1; T 0.405 ± 2.1; V 1.24 ± 2; F 1.74 ± 2.2; C 0.628 ± 2.1; A 0.349 ± 1.6; Q 1.19 ± 1.6; D 1.05 ± 2; H 0.216 ± 2.1; N 0.234 ± 1.1; G 0.572 ± 2; I 0.942 ± 1.8; S 1.22 ± 1.6; P -0.239 ± 1.7; M 0.817 ± 0.63; E 0.469 ± 2; L 0.744 ± 2
T176: A 1.25 ± 2.4; K 2.13 ± 1.9; Q 1.11 ± 2.1; H -0.743 ± 2.5; E 0.745 ± 0.98; I 0.51 ± 2.1; S 1.5 ± 1.8; N 1.25 ± 1.6; Y 1.41 ± 2.3; C 1.33 ± 2.1; L 0.964 ± 1.6; F 1.37 ± 2; P 0.905 ± 2; V 1.86 ± 2.1; D 1.19 ± 2.6; M 2.24 ± 2.5; G 0.957 ± 1.9; W 0.487 ± 1.9; R 1.21 ± 1.8
F180: H 0.107 ± 2.8; T -0.223 ± 1.4; A 0.51 ± 1.7; C 0.76 ± 2; W 1.08 ± 2.5; Y 1.46 ± 2.2; P -0.923 ± 1.1; M 0.909 ± 2.6; G -0.502 ± 1.8; N -1.23 ± 1.9; E -0.934 ± 1.8; Q 0.421 ± 1.5; L 0.637 ± 2; S -0.373 ± 2.4; I 1.22 ± 1.6; R -1.19 ± 1.8; V 0.933 ± 1.8; D -1.87 ± 1.6; K -2.72 ± 1.3
